Measurements published in US20250195681A1, “ANTI-GPC3 ANTIBODY DRUG CONJUGATE AND USE THEREOF” (DUALITY BIOLOGICS (SUZHOU) CO., LTD., priority 2022, published 2025).

How the values were obtained:
[1] = tested on: HepG2 (GPC3+); assay: In vitro proliferation inhibition test of DB1001-X1 and DB1001-X2, CTG method (4.2); assay type: cell-based, human; conditions: for proliferation inhibitory activity (in words): HepG2, conclusion to Table 5; for IC50: Table 5, HepG2 (GPC3+), 6 days of treatment, read-out: Cell killing IC50
Experimental: (§1) Cells in the logarithmic growth phase were collected and plated at a density of 5000 cells/well (HepG2 cells) or 5000 cells/well (Huh7 cells). The cell plate was placed in a 37° C., 5% CO2 incubator and cultured overnight. […] The obtained solutions were added to the cell culture plate at 50 μL/well with a complete medium used as a blank control, and 3 replicate wells were set up. The plate was incubated for another 7 days in a 37° C., 5% CO2 incubator. At the end of the incubation, the cell culture plate was taken out and equilibrated to room temperature. 50 μL of CTG detection reagent (Promega, Cat #: G7573) was added to each well, and the mixture was shaken and mixed well. After the mixture was allowed to stand for 10 minutes, the luminescence signal was detected and read using a microplate reader. GraphPad Prism software was used to plot the S-shaped dose-response curve using a nonlinear regression model, and the IC50 values were calculated. The cell viability was calculated using the formula: cell viability=(Lumtest compound−Lumblank control)/(Lumvehicle control−Lumblank control)×100% The experimental results are shown in the table below: […]

[2] = tested on: Huh7 (GPC3+); assay: as above; assay type: cell-based, human; conditions: for proliferation inhibitory activity (in words): Huh7, conclusion to Table 5; for IC50: Table 5, Huh7 (GPC3+), 6 days of treatment, read-out: Cell killing IC50
Experimental: as §1

[3] = tested on: HepG2 tumor-bearing mice; assay: Efficacy evaluation in HepG2 tumor-bearing mice (5.1); assay type: in vivo, BALB/c nude mice
Experimental: (§2) To study the inhibitory effect of DB1001-X1 on tumor formation in vivo, the antitumor effect of DB1001-X1 was evaluated after xenograft tumors were formed in mice with GPC3-positive expression human liver cancer cells HepG2 or Huh7.
(§3) Blank control group (control group): normal saline
(§4) DB1001-X1 (treatment group): 10 mg/kg
DB1001 (treatment group): 10 mg/kg
(§5) 2. Preparation method: All samples were diluted and prepared with normal saline.
(§6) 3. Test animals: Female BALB/c mice, 8 weeks old, purchased from GemPharmatech Co., Ltd.
1×10^7 HepG2 cells were subcutaneously inoculated into the right anterior scapula of 8-week-old female BALB/c nude mice. When the tumor grew to approximately 110 mm^3, the tumor-bearing mice were randomly grouped using StudyDirector™ software, and on the same day (Day 0), DB1001 and DB1001-X1 were administered via intravenous injection (i.v.) once. The experiment was terminated after 21 days of administration. Tumor volume and body weight were measured twice weekly, and data were recorded.
(§7) Six mice were included in each group (vehicle control group or treatment group). Tumor growth inhibition rate (TGI %) was calculated by measuring tumor volume.

[4] = tested on: HepG2 (GPC3+); assay: In vitro proliferation inhibition test of DB1001 and DB1001-X1, CTG method (4.1); assay type: cell-based, human
Experimental: (§8) The CellTiter-Glo® luminescent cell viability assay (CTG method) was used to evaluate the inhibitory effect of anti-GPC3 naked antibody DB1001 and anti-GPC3 ADC DB1001-X1 on the proliferation of GPC3-positive expression human liver cancer cells HepG2 and Huh7 after 7 days of treatment.
(§9) Cells in the logarithmic growth phase were collected and plated at a density of 4000 cells/well (HepG2 cells) or 6000 cells/well (Huh7 cells). The cell plate was placed in a 37° C., 5% CO2 incubator and cultured overnight. On the second day of the experiment, DB1001 and DB1001-X1 were diluted with a complete medium in a 3-fold serial dilution to obtain 9 concentration gradients, starting with a maximum concentration of 300 nM. The obtained solutions were added to the cell culture plate at 50 μL/well with a complete medium used as a blank control, and 3 replicate wells were set up. The plate was incubated for another 7 days in a 37° C., 5% CO2 incubator. At the end of the incubation, the cell culture plate was taken out and equilibrated to room temperature. 50 μL of CTG detection reagent (Promega, Cat #: G7573) was added to each well, and the mixture was shaken and mixed well. After the mixture was allowed to stand for 10 minutes, the luminescence signal was detected and read using a microplate reader. GraphPad Prism software was used to plot the S-shaped dose-response curve using a nonlinear regression model, and the IC50 values were calculated. The cell viability was calculated using the formula: cell viability=(Lumtest compound−Lumblank control)/(Lumvehicle control−Lumblank control)×100% The experimental results are shown in the table below: […]

[5] = tested on: Huh7 (GPC3+); assay: as above; assay type: cell-based, human
Experimental: as §8, §9

[6] = tested on: Huh7 tumor-bearing mice; assay: Efficacy evaluation in Huh7 tumor-bearing mice (5.2); assay type: in vivo, BALB/c nude mice; conditions: for D 14 TGI %: day 14; for D 17 TGI %: day 17; for D 21 TGI %: day 21
Experimental: as §2, §3
DB1001-X1 (treatment group): 3 mg/kg
as §4, §5, §6
5×10^6 Huh7 cells were subcutaneously inoculated into the right anterior scapula of 8-week-old female BALB/c nude mice. When the tumor grew to approximately 130 mm^3, the tumor-bearing mice were randomly grouped using StudyDirector™ software, and on the same day (Day 0), DB1001-X1 (3 mg/kg) and DB1001-X1 (10 mg/kg) were administered via intravenous injection (i.v.) once. The experiment was terminated after 21 days of administration. Tumor volume and body weight were measured twice weekly, and data were recorded.
as §7

[7] = tested on: Huh7 tumor-bearing mice; assay: Efficacy evaluation in Huh7 tumor-bearing mice (5.4); assay type: in vivo, BALB/c nude mice
Experimental: as §3
(§10) DB1001-Deruxtecan (treatment group): 1 mg/kg
(§11) DB1001-Deruxtecan (treatment group): 3 mg/kg
(§12) (2) Preparation method: All samples were diluted and prepared with normal saline.
(3) Test animals: Female BALB/c naked mice, 8 weeks old, purchased from GemPharmatech Co., Ltd.
5×10^6 Huh7 cells were subcutaneously inoculated into the right anterior scapula of 8-week-old female BALB/c nude mice. […] The experiment was terminated after 21 days of administration. Tumor volume and body weight were measured twice weekly, and data were recorded.
(§13) Tumor growth inhibition rate (TGI %) was calculated by measuring tumor volume.

[8] = tested on: HepG2 tumor-bearing mice; assay: Efficacy evaluation in HepG2 tumor-bearing mice (5.3); assay type: in vivo, BALB/c nude mice
Experimental: as §3, §10, §11, §12
(3) Test animals: Female BALB/c mice, 8 weeks old, purchased from GemPharmatech Co., Ltd.
1×10^7 HepG2 cells were subcutaneously inoculated into the right anterior scapula of 8-week-old female BALB/c nude mice. […] The experiment was terminated after 21 days of administration. Tumor volume and body weight were measured twice weekly, and data were recorded.
as §13

B1: DB1001-X1: anti-GPC3 antibody DB1001 conjugated with linker-payload X1, DAR 7.51 (conjugate)
heavy: QVQLVESGGGVVQPGRSLRLSCAASGFTFRSFGMHWVRQAPGKGLEWVAVISYDASNEYYADSVKGRFIISRDNSKDTLYLQMNSLRAGDTAVYYCAKGGALRWYFAYWGQGTLVTVSS[human IgG1 constant region left out]
light: EIVMTQSPATLSVSPGERATLSCRASQSISSNLGWYQQKPGQAPRLLIYGASTRATGIPARFSGSGSGTEFTLTISSLQSEDFAVYYCQQYRSWPPLTFGGGTKVEIKRTVAAPSVFIFPPSDEQLKSGTASVVCLLNNFYPREAKVQWKVDNALQSGNSQESVTEQDSKDSTYSLSSTLTLSKADYEKHKVYACEVTHQGLSSPVTKSFNRGEC
B1 was tested, and the “proliferation inhibitory activity (in words)” value [1] was “significantly enhanced proliferation inhibitory activity”, the IC50 [1] was 8.37 nM and the “proliferation inhibitory activity (in words)” value [2] was “significantly enhanced proliferation inhibitory activity”. For the same molecule, the IC50 [2] was 4.29 nM, the “D 13 TGI %” value ([3]; HepG2, 10 mg/kg i.v. once, day 13) was 98.90% and the “D 16 TGI %” value ([3]; HepG2, 10 mg/kg i.v. once, day 16) was 94.97%. For the same molecule, the “D 20 TGI %” value ([3]; HepG2, 10 mg/kg i.v. once, day 20) was 86.44%, the “tumor inhibition effect (in words)” value ([3]; HepG2, after a single administration, 10 mg/kg) was “significantly enhanced antitumor activity” and the “proliferation inhibitory activity (in words)” value ([4]; HepG2, conclusion to Table 4) was “significant proliferation inhibitory activity”. For the same molecule, the IC50 ([4]; Table 4, HepG2 (GPC3+), 7 days of treatment, read-out: Cell killing IC50) was 2.63 nM, the “proliferation inhibitory activity (in words)” value ([5]; Huh7, conclusion to Table 4) was “significant proliferation inhibitory activity” and the IC50 ([5]; Table 4, Huh7 (GPC3+), 7 days of treatment, read-out: Cell killing IC50) was 0.65 nM. The “D 14 TGI %” value ([6]; Huh7, 3 mpk i.v. once) was 63.83%, the “D 17 TGI %” value ([6]; Huh7, 3 mpk i.v. once) was 63.59% and the “D 21 TGI %” value ([6]; Huh7, 3 mpk i.v. once) was 59.76%. The “D 14 TGI %” value ([6]; Huh7, 10 mpk i.v. once) was 97.09%, the “D 17 TGI %” value ([6]; Huh7, 10 mpk i.v. once) was 94.70% and the “D 21 TGI %” value ([6]; Huh7, 10 mpk i.v. once) was 89.94%. The “tumor inhibitory activity (in words)” value ([6]; Huh7, after a single administration, 3 and 10 mg/kg) was “significant dose-dependent tumor inhibitory activity”.

B2: DB1001-X2: anti-GPC3 antibody DB1001 conjugated with linker-payload X2, DAR 7.72 (conjugate)
heavy: QVQLVESGGGVVQPGRSLRLSCAASGFTFRSFGMHWVRQAPGKGLEWVAVISYDASNEYYADSVKGRFIISRDNSKDTLYLQMNSLRAGDTAVYYCAKGGALRWYFAYWGQGTLVTVSS[human IgG1 constant region left out]
light: EIVMTQSPATLSVSPGERATLSCRASQSISSNLGWYQQKPGQAPRLLIYGASTRATGIPARFSGSGSGTEFTLTISSLQSEDFAVYYCQQYRSWPPLTFGGGTKVEIKRTVAAPSVFIFPPSDEQLKSGTASVVCLLNNFYPREAKVQWKVDNALQSGNSQESVTEQDSKDSTYSLSSTLTLSKADYEKHKVYACEVTHQGLSSPVTKSFNRGEC
B2 was tested, and the TGI % ([7]; Huh7, 1 mpk i.v. once) was “++ (60 ≤ TGI % < 75%)”, the TGI % ([7]; Huh7, 3 mpk i.v. once) was “+++ (TGI % ≥ 80%)” and the TGI % ([8]; HepG2, 1 mpk i.v. once) was “++ (60 ≤ TGI % < 75%)”. The TGI % ([8]; HepG2, 3 mpk i.v. once) was “+++ (TGI % ≥ 80%)”, the “proliferation inhibitory activity (in words)” value [1] was “significantly enhanced proliferation inhibitory activity” and the IC50 [1] was 7.02 nM. The “proliferation inhibitory activity (in words)” value [2] was “significantly enhanced proliferation inhibitory activity” and the IC50 [2] was 3.91 nM.
